PubChem BioAssay AID938 (National Center for Advancing Translational Sciences (NCATS), 2007)
Among all 73,000 compounds or so, about 1,800 (2.5%) were called active. The shares of active, inactive and inconclusive entries below differ from those in the screen. Calls come from the whole dose curve; as a rule, active = well fitted activation curve with a large enough effect; inconclusive = small, poorly fitted or top-dose-only effect; inactive = no such curve, though single readings can be large or run the other way. Potencies of inconclusive entries are left out as doubtful fits.

Test: qHTS Assay for Agonists of the Thyroid Stimulating Hormone Receptor: Activators of Intracellular cAMP Concentrations in Parental HEK 293; note: nearly all actives have a fitted effect of over 55% in size; for activation: % of control where 0% means no effect
Details: parental HEK293 CNG cAMP sensor, membrane potential fluorescence; activation: at 57.1 µM (top of the series) unless noted
Procedure, shortened: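 Counterscreen for endogenous-receptor signalling: CNG-channel HEK 293 cells report cAMP rise by membrane depolarization. After 60 min dye equilibration with 100 uM RO 20-1724, compounds incubated 30 min before bottom-read fluorescence at 590 nm.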
Potency is the fitted concentration of half-maximal effect; tags give direction and shape of the fitted curve.

Compound | Potency | activation
COc1ccc(-c2nnc(SCc3nnc(-c4ccc(Cl)cc4)o3)n2-c2ccccc2)cc1 | active: 15.8 µM | 
COc1cccc(-n2nnnc2SCC(=O)NCc2ccc3c(c2)OCO3)c1 | inconclusive [activator, partial curve] | 
COc1ccc(NC(=O)N2CCCC3(CCN(S(C)(=O)=O)CC3)C2)cc1 | inconclusive [activator, single point] | 
CCNc1nc(N2CCCCC2)nc(-n2nnc(C(=O)OCC)c2C)n1 | inconclusive [activator, single point] | 
COCCCNC(=O)CS(=O)(=O)Cc1nc(-c2cccc(OC)c2)oc1C |  | inactive: 25.4%
Cc1cc(C(=O)CSc2nnc(-c3cccs3)n2Cc2ccccc2)c(C)n1C | inconclusive [activator, single point] | 
COCCCn1c(SCC(=O)N2CCCC(C)C2)nnc1-c1ccco1 (stereo unspecified) | inconclusive [activator, single point] | 
COCCn1c(C(=O)N2CCCC2)cc2c1C[C@H]1CN(C(=O)c3ccccc3)[C@@](Cc3ccc(OC)cc3)(C(=O)OC)[C@@H]21 | inconclusive [activator, partial curve] | 
CCc1nnc(NC(=O)CSc2ncc(-c3ccccc3)n2CC)s1 | inconclusive [activator, single point] | 
COc1ccccc1CN1CCCC2(CCN(S(=O)(=O)c3ccccc3)CC2)C1 | inconclusive [activator, full curve, poor fit] | 
Cc1occc1C(=O)Nc1ccc2ccccc2c1 |  | inactive: 5.6%
CC(=O)C1=C(C)NC(=O)NC1c1cccc(O)c1 (stereo unspecified) |  | inactive: 12.4%
COc1cccc(N2CCN(CC(=O)Nc3nnc(-c4ccccc4)s3)CC2)c1 | inconclusive [activator, single point] | 
CCOc1ccc(C2C(C#N)=C(N)Oc3cc(C)n(CCN(C)C)c(=O)c32)cc1OCC (stereo unspecified) | inconclusive [activator, single point] | 
CC(=O)c1cccc(NC(=O)c2cc(C(C)C)on2)c1 |  | inactive: 26.1%
Cc1ccc(-c2nc(NC(=O)CSc3nnnn3-c3ccccc3)ns2)cc1 | inconclusive [activator, partial curve] | 

Compound | Potency | activation
N#Cc1c(SCC(N)=O)nc(-c2ccccc2)c2c1CCCC2 | active: 20 µM | 
COc1ccccc1-c1cncnc1NCCNC(C)=O |  | inactive: 8.93%
CCOc1ccc(-c2nnc3sc(COc4ccc(Cl)cc4)nn23)cc1 | active: 25.1 µM | 
O=C(OCc1nnc(-c2ccccc2)o1)c1ccc2c(c1)OCO2 | active: 39.8 µM | 
CCOC(=O)CNc1c(-c2ccc(O)cc2)nc2ccccn12 | inconclusive [activator, single point] | 
O=C1CN(C(=O)c2ccccn2)c2ccccc2N1 | inconclusive [activator, full curve] | 
O=C(Oc1ccccc1)N1CCC2(CCCN(c3ccccc3)C2)CC1 | inconclusive [activator, partial curve] | 
O=C(O)c1ccc(CSc2nnnn2C2CCCCC2)cc1 |  | inactive: 9.22%
O=C(Nc1ccc(N2CCOCC2)c(Cl)c1)c1c(F)c(F)c(F)c(F)c1F | inconclusive [activator, single point] | 
CCOC(=O)N1CCN(c2nc(C(F)(F)F)nc3c(C)cc(C)cc23)CC1 | inconclusive [activator, single point] | 
Cc1cc(N)n2nc(-c3ccccc3)cc2n1 |  | inactive: 3.55%
N#CCCCSc1nnc(-c2ccc(Cl)cc2)n1-c1ccccc1 | active: 25.1 µM | 
COCC(C)n1c(C)cc(C(=O)COC(=O)c2ccc(N3CCCC3=O)cc2)c1C (stereo unspecified) | inconclusive [activator, single point] | 
COc1ccc(NC(=O)c2ccco2)c(OC)c1 |  | inactive: 0.627%
CCN(CCCn1c(SCC#N)nc2ccccc2c1=O)c1ccccc1 | inconclusive [activator, partial curve] | 
